# This is one part of the list. At the low end of the ranking, values are background and their order means little.
# Molecular target: T1, GST-Rok (full length) (UniProt O34857)
# T1 sequence: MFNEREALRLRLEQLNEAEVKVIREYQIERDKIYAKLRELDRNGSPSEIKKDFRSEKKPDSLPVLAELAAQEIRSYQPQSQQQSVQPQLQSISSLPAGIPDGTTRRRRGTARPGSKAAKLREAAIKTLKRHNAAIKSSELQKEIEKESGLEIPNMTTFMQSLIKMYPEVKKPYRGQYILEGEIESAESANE
# Experiment: protein binding microarray;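 further: rank score from −0.5 (least bound) to 0.5 (best bound)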
# Settings: Rok is a gene silencer of Bacillus subtilis; high values mean tight binding; most listed sequences are background and not binding sites; double strand, one strand shown
row,Sequence,binding signal [E-score]
1,TAATTGGA,0.126
2,ACTTGGCT,-0.00011
3,CCGGGCAG,-0.228
4,ACAGGCAG,-0.225
5,ACCGTGTA,0.135
6,ATCTAGCC,0.178
7,GACGTATC,0.0776
8,GTTATGAA,0.155
9,CCCTGTAA,-0.146
10,GGACGTCA,-0.122
11,CGGGGTAC,-0.135
12,TAATACGA,0.377
13,CGCAGGTC,-0.218
14,CATATTGC,0.15
15,AGTAATAG,0.365
16,CAAGCACG,-0.122
17,CACTACGG,0.0917
18,AAACGCGA,-0.143
19,CGTGCGTC,-0.164
20,CCTAGCCG,-0.315
21,GAAAGTGA,0.117
22,GGGCCCAA,-0.342
23,CGCAGGAA,-0.0796
24,GTTTGTCA,0.0951

row,Sequence,binding signal [E-score]
1,AATGGCTG,0.00106
2,GACAGGTA,0.0982
3,AATGTTGA,-0.04
4,AACCCAGT,-0.103
5,CCGCGCCG,-0.323
6,AGCAAAAG,-0.151
7,AGCTTATA,0.177
8,CGCTACGC,-0.216
9,CTGAATAC,0.1
10,GCGGAGAA,-0.0911
11,ACCGGAGG,-0.182
12,ACAGATGG,0.104
13,CAAGAAAC,0.148
14,ACTCCTTG,-0.247
15,AATAAGGC,-0.0153
16,CCGGGGTA,-0.218
17,CCCCCTCG,-0.487
18,TAGCAATA,0.258
19,ACCATTCG,-0.00113
20,AAACGAGT,0.0933
21,ACGCAGCA,-0.108
22,CCGTCAGA,-0.164
23,AGCTTCTC,-0.0691
24,CCTGGGTA,-0.126

row,Sequence,binding signal [E-score]
1,ACCAGTAA,-0.104
2,CAACCGGC,-0.0977
3,TGTCTCAA,0.0298
4,GGTCACCA,-0.158
5,GGCACCCC,-0.401
6,ATACCTGC,0.18
7,CTTTATTC,-0.0938
8,CGTCCTTC,-0.209
9,CAGCCAAG,-0.181
10,GATGTCGA,-0.123
11,AGACGCGC,-0.0392
12,CACTACGC,-0.0424
13,CGCTCTAG,-0.0224
14,AATGCTTA,0.0405
15,ATATGGGG,-0.0605
16,ACCACTTA,0.187
17,GGCCCACA,-0.24
18,ATACACTC,0.19
19,AAACTCCG,0.0372
20,GCTTAAAC,-0.14
21,AGCTCCAC,-0.16
22,CCTACTAA,-0.00507
23,AACCCTGG,-0.00184
24,CACCAAGA,-0.134

row,Sequence,binding signal [E-score]
1,GCGCAATA,0.0707
2,CACCCCCG,-0.287
3,CCAACGGC,-0.32
4,AGTGGGGA,-0.294
5,AATCTTCG,0.0665
6,CATCACAG,-0.0903
7,TCGCTGAA,-0.207
8,AAAGTCGA,-0.0163
9,ACGAGGGC,-0.278
10,AGGAAGGG,-0.34
11,AGGTTTAC,0.218
12,AGAAGCGC,0.00642
13,ACGTCAGT,-0.0487
14,AAGTGGAG,-0.191
15,CATTTCAG,-0.0709
16,CATGGCCC,-0.326
17,CGGGTGAG,-0.309
18,CCGGTAGA,0.229
19,CTTTTTGC,-0.229
20,CGTTATGC,0.0931
21,GTCCACTA,0.0838
22,CTTGGGTA,0.0173
23,AATATACT,0.395
24,CACGAAGC,-0.046

row,Sequence,binding signal [E-score]
1,AGTAGATG,0.283
2,CCACAAGG,-0.347
3,TAAGAACA,0.1
4,ATGTCCAC,0.177
5,AACAAGCT,-0.244
6,ACTACGTC,0.181
7,TCCTGCGA,-0.243
8,GGATTAAA,0.0576
9,TAGGTCAA,0.207
10,CTTCAGAC,-0.203
11,ACGAGGTG,0.0198
12,AAGGGCGC,-0.215
13,AGGGTTCG,-0.289
14,ATCGCCGA,0.0296
15,ATTAAAGG,-0.0538
16,AAGAGACG,-0.161
17,AGCATTCC,0.0415
18,CTGTCAAG,-0.0278
19,GGTTCTAA,-0.053
20,CCAGCAAG,0.121
21,ACAGCTTG,-0.0835
22,AAGCTTGC,0.039
23,ATCTCGGG,0.0686
24,ATCGCGTC,-0.113

row,Sequence,binding signal [E-score]
1,AACAAGGA,-0.127
2,ATTGCGGG,-0.118
3,GGCCCTAA,-0.279
4,CGGGTGCC,-0.275
5,ATCACGTG,0.189
6,AGAAGGGA,-0.296
7,GGCTAGCA,0.164
8,CGGCAGAC,-0.0742
9,CGAGACCC,-0.116
10,CGGGATGA,-0.0551
11,ACACGAAA,0.118
12,ACCAACGA,0.102
13,AAGGCTGT,-0.136
14,ACGCTGCT,-0.0607
15,ACGTAAGA,0.197
16,ATGCTAAC,0.117
17,AGACTCGA,-0.136
18,GGCAAGCA,-0.268
19,AGCGTATG,0.126
20,ACTAATCT,0.218
21,AGCCAGTG,-0.197
22,CGAGGGCG,-0.284
23,CGTGATTA,0.0497
24,TGGCTACA,-0.171
